# Publication PMC4336329 (PLoS ONE, 2015)
# About 14,000 (4.5%) of roughly 310,000 compounds showed an effect of 50% or more. Effects have a minus sign here. Some of the results follow.
# Molecular target: human ether-à-go-go-related gene (hERG) potassium channel (human, UniProt Q12809)
# Assay: primary screen, population patch clamp on CHO cells stably expressing hERG
# 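Note: peak tail current of the secondary pulse compared with the same well before compound.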
# Sequence of human ether-à-go-go-related gene (hERG) potassium channel (Q12809 whole entry, looked up): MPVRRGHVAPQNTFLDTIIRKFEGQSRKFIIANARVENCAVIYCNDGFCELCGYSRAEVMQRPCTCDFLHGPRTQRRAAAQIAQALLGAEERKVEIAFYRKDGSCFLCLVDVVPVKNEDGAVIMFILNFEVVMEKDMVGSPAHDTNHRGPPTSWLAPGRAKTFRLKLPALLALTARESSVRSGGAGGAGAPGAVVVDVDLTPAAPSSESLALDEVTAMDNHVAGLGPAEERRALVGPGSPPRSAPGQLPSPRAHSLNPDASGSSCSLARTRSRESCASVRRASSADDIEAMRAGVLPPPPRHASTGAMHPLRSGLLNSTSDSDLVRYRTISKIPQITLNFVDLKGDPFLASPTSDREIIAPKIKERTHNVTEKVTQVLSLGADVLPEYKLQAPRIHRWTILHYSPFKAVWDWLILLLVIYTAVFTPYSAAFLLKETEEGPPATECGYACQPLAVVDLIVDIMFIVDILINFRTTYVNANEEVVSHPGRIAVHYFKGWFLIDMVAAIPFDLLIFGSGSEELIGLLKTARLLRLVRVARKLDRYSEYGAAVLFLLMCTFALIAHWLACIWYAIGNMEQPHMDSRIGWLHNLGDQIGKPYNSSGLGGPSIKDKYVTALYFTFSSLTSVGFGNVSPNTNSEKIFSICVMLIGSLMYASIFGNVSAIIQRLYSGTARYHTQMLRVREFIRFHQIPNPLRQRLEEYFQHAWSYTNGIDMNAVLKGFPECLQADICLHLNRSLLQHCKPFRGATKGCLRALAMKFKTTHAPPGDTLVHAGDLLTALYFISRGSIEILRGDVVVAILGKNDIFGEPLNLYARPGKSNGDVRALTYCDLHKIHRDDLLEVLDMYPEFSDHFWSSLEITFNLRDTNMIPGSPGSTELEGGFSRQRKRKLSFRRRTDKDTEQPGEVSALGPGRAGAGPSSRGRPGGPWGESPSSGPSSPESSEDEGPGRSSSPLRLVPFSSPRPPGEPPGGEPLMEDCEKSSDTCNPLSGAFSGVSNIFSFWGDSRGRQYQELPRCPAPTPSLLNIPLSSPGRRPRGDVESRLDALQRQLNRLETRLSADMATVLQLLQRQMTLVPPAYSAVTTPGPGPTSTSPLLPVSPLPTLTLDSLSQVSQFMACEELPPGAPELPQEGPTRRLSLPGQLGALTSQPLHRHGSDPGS
row,SMILES,"hERG current change (%, negative = inhibition) at 10uM"
1,Cc1ccc(S(=O)(=O)N2CCN(C(=O)CCCOc3cccc(C)c3)CC2)cc1,9.25%
2,O=c1c2ccccc2nc(-c2ccc(Cl)cc2Cl)n1CCCn1ccnc1,-34.1%
3,C/C(N)=C(/C#N)C(=O)CSc1nc2scc(-c3ccccc3)c2c(=O)n1C,18.6%
4,O=C(NCc1ccc(Cl)cc1)C1CCCCN1S(=O)(=O)c1ccccc1 (stereo not drawn),-29.5%
5,O=C(CN1CCCCCCC1)Nc1ccc(Cl)cc1Cl,35.9%
6,CCOC(=O)C1=C(C)NC(SCC(=O)OC)=C(C#N)C1c1ccc(C(=O)OC)cc1 (stereo not drawn),-23.4%
7,CCn1c(SCc2ccc(Cl)cc2)nnc1-c1ccccc1,-44.4%
8,CO[C@H]1C=CO[C@@]2(C)Oc3c(C)c(O)c4c(O)c(c5c(c4c3C2=O)NC2(CCN(CC(C)C)CC2)N=5)=NC(=O)C(C)=CC=C[C@H](C)[C@H](O)[C@@H](C)[C@@H](O)[C@@H](C)[C@H](OC(C)=O)[C@@H]1C,6.88%
9,N#Cc1cccc(NC(=O)CSc2nnc(C3CC3)n2C2CC2)c1,-52.4%
10,Cc1ccc(C2=C/C(=C/c3cccnc3)C(=O)O2)c(C)c1,16.6%
11,O=C(O)CCc1ccc(-c2ccc(F)cc2)n1CC(=O)O,-6.85%
12,CCOC(=O)[C@@H]1[C@H]2COc3cc(OC)ccc3[C@@H]2N2C(=O)N(c3cccc(Cl)c3)C(=O)[C@]12C,19.9%
13,COc1cc2c(cc1OC)C(C1C(=O)CC(C)CC1=O)N(C(=O)CCl)CC2 (stereo not drawn),8.09%
14,O=C1COc2ccc(C(=O)c3ccccc3C(=O)O)cc2N1,18.8%
15,Cc1ccc(Cl)cc1N1CCN(C(=O)C2CCN(S(=O)(=O)c3c(C)nn(C)c3C)CC2)CC1,-12.5%
16,CNC(=O)CSc1ncnc2c1cnn2-c1ccccc1,2.29%
17,CN1CCN(c2nc(-c3ccc(Cl)cc3Cl)nc3ccccc23)CC1,-73.9%
18,Cc1cc(O)ccc1C1(c2ccc(O)cc2C)OC(=O)c2ccccc21,-30.5%
19,Cc1ccc(NC(=O)c2ccc(CSc3nccc(C)n3)cc2)cc1,-2.64%
20,CN(C)CCCN(C(=O)COc1ccccc1)c1nc2cc3c(cc2s1)OCCO3,-45%
21,COC(=O)c1ccc(Cn2cnc3c(cnn3-c3ccc(F)cc3)c2=O)o1,-8.65%

row,SMILES,"hERG current change (%, negative = inhibition) at 10uM"
1,CC1(C)SC(=S)N(/N=C/c2ccc(O)cc2)C1N(O)C(=O)Nc1ccc([N+](=O)[O-])cc1 (stereo not drawn),-10.2%
2,COc1c(O)cc2oc(-c3ccc(O)c(O)c3)cc(=O)c2c1O,10.6%
3,O=C(O)CN1C(=O)/C(=C\c2cc(Br)ccc2OCc2ccc(Cl)cc2Cl)SC1=S,15.9%
4,CCOC(=O)c1c(NC(=O)c2ccccc2C(=O)O)sc2c1CCC2,-1.15%
5,Cn1nc(C(=O)N2CCN(c3ccc(F)cc3)CC2)c2c1-c1ccccc1S(=O)(=O)C2,-54.3%
6,C=CCC1C=C(C)CC(CC=C)N1 (stereo not drawn),2.67%
7,O=C(O)c1cccc2c1C(=O)c1ccc(N3CCCC3)cc1S2(=O)=O,9.94%
8,COc1cc(S(=O)(=O)N2CCN(C(=O)c3ccco3)CC2)ccc1Cl,-1.02%
9,COCc1c(C(=O)N2CCN(Cc3c(F)cccc3Cl)CC2)oc2ccccc12,-12.2%
10,CSc1ccccc1NC(=O)CN(C)Cc1cc(=O)n2ccsc2n1,-47.9%
11,CS(=O)(=O)c1sc2nc(-c3cccs3)cc(-c3ccccc3)c2c1N,15.8%
12,CC1CCc2nn(CC(=O)NCc3ccco3)cc2C1 (stereo not drawn),-0.548%
13,CCn1c(=O)cc(OCC(=O)NCCCN2CC(C)CC(C)C2)c2ccccc21 (stereo not drawn),-12.5%
14,COc1ccc(NC(=O)Cn2nc(C(=O)O)c3ccccc3c2=O)cc1Cl,18.9%
15,Oc1cc(NCc2cccnc2)ccc1-c1nc2ccccc2o1,17.1%
16,COc1ccc(Cc2nnc(SCC(=O)N(c3ccccc3)C(C)C)n(N)c2=O)cc1,-16.8%
17,CCOC(=O)Nc1ccc(C)cc1NC(=O)OCC,11.7%
18,COc1cc(C(=O)N2CCN(c3ccccc3OC)CC2)c([N+](=O)[O-])cc1OC,18.5%
19,O=C(O)C1=C[C@@H](C2CC2)C[C@@H](OCc2ccc(CO)cc2)O1,21.4%
20,COc1ccc(CN2CSC(=S)N(Cc3ccc(OC)cc3)C2)cc1,2.37%
21,COc1ccc2cnn(-c3ccccc3C)c(=O)c2c1OC,8.51%
